This note sets out measurements from ChEMBL document CHEMBL4888484, “Replenishing the malaria drug discovery pipeline: Screening and hit evaluation of the MMV Hit Generation Library 1 (HGL1) against asexual blood stage Plasmodium falciparum ,using a nano luciferase reporter read-out” (2022).

One may read the % Inhibition as the change of the read-out against control, counted positive when it falls.

Among all 150,000 compounds or so, about 540 (0.36%) showed an effect of 50% or more. Some of the results follow.

In the test the test system is Plasmodium falciparum. The experiment in a line: Primary screen in NF54 nanoGlo assay, in single point, at 2uM, 72h; a lower Z score goes with more inhibition. The test is classed as functional, Erythrocyte. Conditions: timepoint 72 hour.
Consider `Cc1cnn([C@@H](C)CNC(=O)c2cc(CN3CCC(O)CC3)on2)c1`, for which the “% Inhibition” value is given as -6% and the Z score is on record as 0.98.
The like results for `COc1ccc(CCCN2CC[C@H](C(N)=O)C2)cc1F` were, in that order, -8% and 0.74.
In the case of `Cc1cc(=O)[nH]c(CCN[C@@H](C)COc2ccccc2)n1`, the “% Inhibition” value is listed as -2% and the Z score came out at 0.33.
On to `Cc1noc2nc(C3CC3)cc(C(=O)NC3CCN(C4CC4)CC3)c12`, for which the “% Inhibition” value is -2% and the Z score worked out at 0.28.
The like results for `Cc1csc(CNC(=O)C(=O)Nc2ccc3c(c2)C(=O)N(C)C3=O)n1` were, in that order, 35% and -4.73.
Turning to `Cc1nnc(C(C)NC(=O)C2(C)CCCN(C(=O)c3ccccc3)C2)o1` (centres undefined), the “% Inhibition” value was -7% and the Z score is on record as 0.99.
The like results for `COc1ccc(NC(=O)C(c2ccccc2)N2CCC(N3CCOCC3)C2)cc1Cl` (centres undefined) were, in that order, -11% and 0.94.
Regarding `Cc1nc(N(C)C)nc(N[C@H]2CCNC2=O)c1C`, the “% Inhibition” value came to 11% and the Z score is reported as -1.28.
In the case of `Cc1cc(-c2ccc(C)c(S(=O)(=O)N(CCN3CCOCC3)Cc3ccco3)c2)on1`, the “% Inhibition” value turned out to be 6% and the Z score is recorded as -0.84.
Consider `O=C(c1ccc2cc[nH]c2c1)N1CCO[C@H](C(F)(F)F)C1`, for which the “% Inhibition” value is 8% and the Z score is on record as -0.82.
With `CC[C@H]1CN2C=NC(N3CCN(C(=O)Cc4ccccc4)CC3)=CC2=N1`, the “% Inhibition” value is listed as 56% and the Z score was -2.27.
For the compound `CC(C)NC(=O)c1cc(=O)c(OCc2ccccc2)c[nH]1`, the “% Inhibition” value is recorded as -5% and the Z score came to 1.03.
On the same counts, the results for `Cc1nc(C)c(C(=O)N2CC[C@@H](O)[C@H]2c2ccc(Cl)cc2)o1` are -12% and 1.3.
Regarding `Cc1n[nH]c(C)c1NC(=O)NCC1CC12CCc1ccccc12` (centres undefined), the “% Inhibition” value came out at 26% and the Z score is -2.91.
For `C[C@H](NC(=O)Cn1nc(C2CC2)ccc1=O)C(N)=O`, the “% Inhibition” value turned out to be 19% and the Z score was -2.49.
On the same counts, the results for `O=C1NC[C@H]2O[C@H](CCOc3ccccc3C(=O)N3CCN(Cc4cccc(Cl)c4)C[C@@H]13)CC[C@@H]2O` are 0% and -0.05.
On to `COc1ccc(Nc2nnc(-n3nc(C)cc3C)c3ccccc23)c(OC)c1`, for which the “% Inhibition” value is given as 1% and the Z score is recorded as -0.26.
Turning to `Cc1cccc(CS(=O)(=O)c2nnc([C@H](Cc3ccccc3)NC(=O)OC(C)(C)C)o2)c1`, the “% Inhibition” value is -9% and the Z score was found to be 0.77.
On the same counts, the results for `CCN(CC(=O)Nc1nc(-c2ccc(Cl)cc2)cn1-c1ccc(C)cc1)S(=O)(=O)c1ccc(C)cc1` are -11% and 1.43.
Turning to `O=C1C2CCC3(CC2C(=O)N1CCc1c[nH]c2ccccc12)OCCO3` (centres undefined), the “% Inhibition” value was -5% and the Z score is 0.58.
For the compound `COc1ccc(C)cc1C(=O)N[C@H]1C[C@@H](c2nnc(CN(C)C)n2C)C1`, the “% Inhibition” value is given as -10% and the Z score was determined as 1.97.
Regarding `CCc1nc(-c2ccc3c(c2)CCN3C(=O)Cc2ccc(F)cc2)no1`, the “% Inhibition” value was found to be 12% and the Z score was -1.42.
On the same counts, the results for `COC[C@H](C)N(Cc1ccc(OC)c(OC)c1)C(=O)Cc1cccnc1` are -7% and 1.34.
For `O=C(NCc1ccccc1)C1CCN(c2nc3nc[nH]c(=O)c3s2)CC1`, the “% Inhibition” value was -29% and the Z score was found to be 2.55.
Regarding `COCc1c(C(=O)N(C)Cc2ccc(C)o2)noc1C`, the “% Inhibition” value was -1% and the Z score came to 0.1.
On the same counts, the results for `C[C@@]1(C(=O)NC2CCCCCCC2)Cn2c(ccc2-c2ccccc2)C(=O)N1Cc1ccccc1F` are -13% and 1.64.
Consider `CCOc1nccnc1N1CCN(CC(C)C)C(=O)C1`, for which the “% Inhibition” value is -12% and the Z score is given as 1.49.
The like results for `COC[C@H]1CN(C2CCC2)CC12CCN(C(=O)Cc1cccc(OC)c1)CC2` were, in that order, -9% and 1.05.
For `O=C(CN1CC[C@@]2(CCCN(CC3CCCCC3)C2=O)C1)NC1CC1`, the “% Inhibition” value was 11% and the Z score was -1.44.
The like results for `O=C(c1cccc(C(F)(F)F)c1)N1CCC(n2cnnc2C2CC2)CC1` were, in that order, 2% and -0.34.
Take `COc1ccc(O[C@@H](C)CNC(=O)c2cc(C)n[nH]2)cc1`: the “% Inhibition” value came out at 0% and the Z score is on record as -0.08.
The like results for `C[C@H](NC(=O)c1cnn(C)c1C1CC1)c1nc[nH]n1` were, in that order, 8% and -1.22.
Consider `CCCCn1nnnc1NC(=O)N(C)C[C@H]1CCCCO1`, for which the “% Inhibition” value is listed as -12% and the Z score stood at 1.6.
`CN(Cc1nccn1C)C(=O)c1ccc(=O)n(-c2ccccc2F)n1`: the “% Inhibition” value is on record as -1% and the Z score was found to be 0.08.
With `CCc1ccc(NC(=O)c2sc3ncnc(N(C)C4CCCCC4)c3c2C)cc1`, the “% Inhibition” value is -9% and the Z score stood at 0.8.
The like results for `O=S(=O)(NC[C@@H](CO)Cc1ccco1)c1cc(F)cc(Cl)c1` were, in that order, -2% and 0.29.
With `CCN(CC(=O)N1CCCN(c2ccc(-c3cccc(OC)c3)nn2)CC1)C(=O)c1ccc2c(c1)OCO2`, the “% Inhibition” value is recorded as -11% and the Z score is on record as 1.45.
On the same counts, the results for `COc1ccc(S(=O)(=O)N2CCC(=O)c3ccccc32)cn1` are -7% and 0.98.
Consider `CCN(C(=O)c1ccn(C)c1C1CCC1)c1ccncc1`, for which the “% Inhibition” value was -3% and the Z score came out at 0.6.
On the same counts, the results for `Cc1nn(C)cc1[C@H](C)NC(=O)NCC1(C(=O)N(C)C)CCCC1` are -9% and 0.95.
The like results for `Cc1nc(NS(=O)(=O)c2ccccc2)sc1NC(=O)Nc1ccccc1Cl` were, in that order, -19% and 2.48.
On the same counts, the results for `CN(C(=O)c1ccncc1Cl)c1ncccc1C#N` are 3% and -0.41.
As for `COc1ccc(S(=O)(=O)N[C@H]2CCN(c3ccc(=O)n(CC4CC4)n3)C2)cc1Cl`, the “% Inhibition” value is -7% and the Z score is 0.85.
The like results for `COc1ccc(-c2cnc3ncnn3c2NCc2cccc(C)c2)cc1` were, in that order, 6% and -1.12.
In the case of `CCNC(=O)C[C@H]1COCCN1C(=O)c1ccc(Cn2ccnc2)o1`, the “% Inhibition” value is recorded as -10% and the Z score is reported as 1.33.
The like results for `COc1cn(CCO)c(C(=O)Nc2cccc(Cl)c2)cc1=O` were, in that order, -9% and 1.21.
For `O=C(CCS(=O)(=O)c1ccc(Cl)cc1)Nc1ccc2c(c1)C(O)=Nc1cccnc1O2`, the “% Inhibition” value is reported as 18% and the Z score is reported as -2.69.
On to `COc1cc2c(cc1OC)CN(C(=O)c1n[nH]c3c1CCC3)CC2`, for which the “% Inhibition” value was -15% and the Z score amounted to 1.85.
On the same counts, the results for `Cc1cc(Br)c2ccccc2c1NC(=O)N(C)[C@H]1C[C@@H](C(N)=O)C1` are -4% and 0.75.
For `CCN(C(=O)[C@H]1CCS(=O)(=O)C1)c1ccc(OC)nc1`, the “% Inhibition” value is listed as -33% and the Z score is reported as 3.89.
As to `CC(C)CC(=O)Nc1ccc(C2OC(=O)N(Cc3ccccc3)C2C(=O)Nc2ccc(F)cc2)cc1` (centres undefined), the “% Inhibition” value is listed as 0% and the Z score is -0.06.
The like results for `COC(=O)c1cn(CC(=O)N2Cc3ccccc3N(C)C[C@@H]2C)nn1` were, in that order, -8% and 1.51.
As for `O=C([C@@H](O)c1ccccc1)N1CCC(c2nc(-c3ccncc3)cs2)CC1`, the “% Inhibition” value is -8% and the Z score is 1.59.
As for `Cc1ccc([C@H](C)NC(=O)CN(C)C2Cc3ccccc3C2)cc1`, the “% Inhibition” value is recorded as -10% and the Z score was determined as 1.83.
Take `CC(C)(C)c1nsc(NCc2ccc[n+]([O-])c2)n1`: the “% Inhibition” value was -1% and the Z score was determined as 0.24.
The like results for `COc1ccc(C2=NN=C(c3ccc(C)cc3)Cc3c2c(=O)n(C)c(=O)n3C)cc1` were, in that order, 5% and -0.48.
On the same counts, the results for `CCCn1cc(C(=O)N2C[C@H]3CCC[C@@]3(CO)C2)c(C)n1` are -4% and 0.57.
On the same counts, the results for `CC(OCC1CC1)C(=O)N1CCCC(n2cccn2)C1` (centres undefined) are -9% and 1.23.
For `CC(=O)N1CCC(C(=O)N2CCO[C@@H](CCCc3ccccc3)C2)CC1`, the “% Inhibition” value is -6% and the Z score is reported as 0.73.
As for `Cc1cccc(O[C@@H](C)C(=O)N2CCN(c3ccc(-n4ccnc4)nn3)CC2)c1`, the “% Inhibition” value is on record as -13% and the Z score is 2.56.
On the same counts, the results for `CC(C)n1ccnc1CN(CC(=O)O)Cc1ccc(Cl)s1` are -7% and 1.21.
As to `O=C(Nc1cccn2cnnc12)N(Cc1ccccn1)C1CCCCC1`, the “% Inhibition” value is reported as -8% and the Z score is on record as 1.61.
In the case of `CC(C)Cn1cc(C(=O)NS(=O)(=O)c2ccsc2)cn1`, the “% Inhibition” value is listed as -3% and the Z score was 0.31.
On the same counts, the results for `CC(=O)NCC1=CCCN(Cc2cc3c(cc2Cl)OCO3)C1` are -15% and 2.62.
The like results for `O=C(CN1CCO[C@H]2COCC[C@H]21)Nc1cc(F)cc(F)c1` were, in that order, 9% and -1.47.
The like results for `COCC(=O)N1CC[C@@]2(O)CCN(Cc3ccc(F)cc3Cl)C[C@H]2C1` were, in that order, 8% and -1.03.
For the compound `Cn1c(C(=O)NC2(Cc3ccc(F)cc3)CC2)c2n(c1=O)CCCC2`, the “% Inhibition” value was -17% and the Z score amounted to 1.81.
On the same counts, the results for `Brc1cncnc1N1CCCCC2CCCCC21` (centres undefined) are -6% and 0.79.
The like results for `Fc1ccc(OC[C@H]2CCOC2)c(-c2cccc3nccn23)c1` were, in that order, -3% and 0.35.
On the same counts, the results for `O=C(c1cnn(Cc2ccccc2)c1)N1CCc2c(nnn2-c2ccccc2)C1` are 11% and -2.17.
With `CN1CC[C@H](Cc2nc(-c3cc(Cl)c4c(c3)OCCCO4)no2)C1`, the “% Inhibition” value is reported as -4% and the Z score was 0.54.
The like results for `COCc1nc(-c2ccc(OC3CN(S(=O)(=O)c4ccc(F)cc4)C3)cc2)no1` were, in that order, -13% and 2.48.
The like results for `c1cn2cnnc2c(N2CC3CCCC3C2)n1` (centres undefined) were, in that order, -2% and 0.28.
On the same counts, the results for `Fc1ccc(-c2n[nH]c3c2CN(CCCC(F)(F)F)CC3)cc1F` are 1% and -0.17.
For the compound `CN(CC(=O)Nc1cccc(Oc2cccnn2)c1)c1ccccc1`, the “% Inhibition” value was -13% and the Z score worked out at 1.91.
For the compound `N#C[C@@H](NC(=O)c1ccnc(OCC(F)F)c1)c1ccsc1`, the “% Inhibition” value is -2% and the Z score turned out to be 0.19.
With `CC(C)[C@@H](CO)NC(=O)NCc1cccc(Cl)c1F`, the “% Inhibition” value was determined as 10% and the Z score is recorded as -1.55.
On the same counts, the results for `CCN1CCN(CC(=O)N2N=C(c3cccc(F)c3)C[C@H]2c2ccccc2C)CC1` are -6% and 0.61.
The like results for `COc1ncnc(N(C)C)c1NC(=O)C(=O)NCc1ccccc1` were, in that order, 4% and -0.53.
On the same counts, the results for `CO[C@@H](C(=O)N(C)c1ncccc1F)c1ccccc1` are 10% and -1.83.
`Cc1cccc(OCC(C)NC(=O)NC(C)c2nccs2)c1` (centres undefined): the “% Inhibition” value is reported as -8% and the Z score stood at 1.54.
Take `c1cc(-c2ccc3ncccc3c2)nc(N2CCNCC2)c1`: the “% Inhibition” value is on record as 29% and the Z score is reported as -3.69.
